This assay deals with recombinant histone H4 (no post-translational modifications) (UniProt P62805). As to the kind of experiment: far-western blot.

B1: artificial protein C7LT (chromodomain of CBX7, artificial linker of 27 amino acids, PHD domain of TAF3, N-terminal GST tag) (designed binder)
chain: [sequence of about 200 residues omitted]SDLEVLFQGPLGSEQVFAVESIRKKRVRKGKVEYLVKWKGWPPKYSTWEPEEHILDPRLVMAYEEKEESSGNSNANSRGPSFSSGLVPLSLRGSHVIRDEWGNQIWICPGCNKPDDGSPMIGCDDCDDWYHWPCVGIMTAPPEEMQWFCPKCANKKKDKKHKKRKHRAH
notes: N-terminal GST tag
Take B1: the binding result is “no binding”.

B2: artificial protein MLM (chromodomain of MPP8, artificial linker of 27 amino acids, chromodomain of MPP8, N-terminal GST tag) (designed binder)
chain: [sequence of about 200 residues omitted]SDLEVLFQGPLGSVFEVEKILDMKTEGGKVLYKVRWKGYTSDDDTWEPEIHLEDCKEVLLEFRKKIAESSGNSNANSRGPSFSSGLVPLSLRGSHVFEVEKILDMKTEGGKVLYKVRWKGYTSDDDTWEPEIHLEDCKEVLLEFRKKIAELERPHRD
notes: N-terminal GST tag
Regarding B2, the binding result was “no binding”.
